Some of the results follow. Single values are uncertain, as repeats are few or missing.
Legend:
Experiment in all cases: cell count relative to DMSO control; melanoma cells; higher = more viable cells
Conditions in all cases: library dose: standard library concentration; 72 h
[1] = test system: G361
[2] = test system: IPC-298
[3] = test system: IST-MEL1
[4] = test system: LB2518-MEL
[5] = test system: LOXIMVI
[6] = test system: MEL-HO
[7] = test system: MZ2-MEL
[8] = test system: MeWo
[9] = test system: RPMI7951
[10] = test system: RVH-421
[11] = test system: SkMel28
[12] = test system: SkMel2
[13] = test system: SkMel30
[14] = test system: SkMel5
[15] = test system: UACC257
[16] = test system: UACC62
[17] = test system: WM115
[18] = test system: WM1716
[19] = test system: WM3526
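Further: cells treated in 1,536-well plates, then fixed and DAPI-stained, with nuclei counted from automated high-throughput microscope images.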

SMILES	cell count [1] [%]	cell count [2] [%]	cell count [3] [%]	cell count [4] [%]	cell count [5] [%]	cell count [6] [%]	cell count [7] [%]	cell count [8] [%]	cell count [9] [%]	cell count [10] [%]	cell count [11] [%]	cell count [12] [%]	cell count [13] [%]	cell count [14] [%]	cell count [15] [%]	cell count [16] [%]	cell count [17] [%]	cell count [18] [%]	cell count [19] [%]
CS(=O)(=O)CCNCc1ccc(-c2ccc3ncnc(Nc4ccc(OCc5cccc(F)c5)c(Cl)c4)c3c2)o1 [lapatinib] + O=C(Oc1ccc([N+](=O)[O-])cc1)N1CCC(C(O)(c2ccc3c(c2)OCO3)c2ccc3c(c2)OCO3)CC1 [JZL184] (first compound 4 µM, partner dose 5 µM)	49.7	83.7	87.1	122	86.5	76.3	64.1	66.2	40.9	80.8	64.1	81.1	88.8	68.1	95.4	41.5	101	61.6	73.6
NC(=O)c1ccc(N(C(N)=O)c2c(F)cccc2F)nc1-c1ccc(F)cc1F + O=C(Oc1ccc([N+](=O)[O-])cc1)N1CCC(C(O)(c2ccc3c(c2)OCO3)c2ccc3c(c2)OCO3)CC1 [JZL184] (first compound 2 µM, partner dose 5 µM)	108	109	94.4	135	189	98.4	108	101	88	82.5	73.4	90.1	100	99.5	91.5	68.2	67.4	106	81
OCc1c[nH]c2ccccc12 [Indole-3-carbinol] + O=C(Oc1ccc([N+](=O)[O-])cc1)N1CCC(C(O)(c2ccc3c(c2)OCO3)c2ccc3c(c2)OCO3)CC1 [JZL184] (first compound 4 µM, partner dose 5 µM)	92.7	99.9	97.6	109	89.8	98.5	97.1	110	91.2	97.2	101	100	120	84.6	83.4	78.9	94.9	89.1	89.6
Cc1cn(-c2cc(NC(=O)c3ccc(C)c(Nc4nccc(-c5cccnc5)n4)c3)cc(C(F)(F)F)c2)cn1 [nilotinib] + O=C(Oc1ccc([N+](=O)[O-])cc1)N1CCC(C(O)(c2ccc3c(c2)OCO3)c2ccc3c(c2)OCO3)CC1 [JZL184] (first compound 1 µM, partner dose 5 µM)	81.9	85.4	95.3	107	96.5	88.6	82.3	73.7	99.5	90.7	94.9	92.2	86.8	64.1	103	77.4	101	88.9	71.6
O=C(/C=C/c1cccnc1)NCCCCC1CCN(C(=O)c2ccccc2)CC1 + C/C(O)=C(\C#N)C(=O)Nc1cc(Br)ccc1Br [LFM-A13] (first compound 0.05 µM, partner dose 10 µM)	3.75	33.7	46.3	61.9	65.4	43.3	33.6	92.4	103	50.2	67	26.1	92.2	90.5	88.4	73	98.4	85.2	76.2
CCCS(=O)(=O)Nc1ccc(F)c(C(=O)c2c[nH]c3ncc(Cl)cc23)c1F + O=C(Oc1ccc([N+](=O)[O-])cc1)N1CCC(C(O)(c2ccc3c(c2)OCO3)c2ccc3c(c2)OCO3)CC1 [JZL184] (first compound 0.4 µM, partner dose 5 µM)	56.1	65.6	91.4	124	109	69.7	65	82.1	84.3	31	39.8	76.8	95.4	68.4	91.4	43.9	67.3	67.8	40.1
Nc1ncn([C@H]2C[C@H](O)[C@@H](CO)O2)c(=O)n1 [decitabine] + Cc1cc(SCc2sc(-c3ccc(C(F)(F)F)c(F)c3)nc2C)ccc1OCC(=O)O [GW0742] (first compound 0.5 µM, partner dose 10 µM)	88.4	68.9	77.8	85.7	91.5	84.3	80.5	60.4	57.6	89	97	104	98.7	98.3	102	74	79.3	78.9	95.4
NC1(c2ccc(-c3nc4ccn5c(=O)[nH]nc5c4cc3-c3ccccc3)cc2)CCC1 + Cc1cc(SCc2sc(-c3ccc(C(F)(F)F)c(F)c3)nc2C)ccc1OCC(=O)O [GW0742] (first compound 2 µM, partner dose 10 µM)	96.1	91.2	91.1	78.1	89.2	76	98.4	82	103	70.8	65.4	76.8	95.7	80.3	92.4	74.4	77.6	70.1	81.9
